Drawing on article PMC12820563, “FoxP3 forms a head-to-head dimer in vivo and stabilizes its multimerization on adjacent microsatellites”, this text covers binding signal for 31 sequences.

The list shows a part of the results.

This test concerns the target T1, MBP-FoxP1dN (Mus musculus, UniProt P58462 326-579).
T1 sequence: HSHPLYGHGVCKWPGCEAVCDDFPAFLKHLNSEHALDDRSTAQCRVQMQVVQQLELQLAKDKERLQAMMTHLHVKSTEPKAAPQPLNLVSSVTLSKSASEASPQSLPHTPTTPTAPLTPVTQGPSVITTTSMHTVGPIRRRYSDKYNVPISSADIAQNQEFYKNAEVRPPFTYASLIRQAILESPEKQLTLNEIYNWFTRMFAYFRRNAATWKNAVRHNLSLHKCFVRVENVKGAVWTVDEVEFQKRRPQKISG
As to the kind of experiment: PD-seq (MBP pull-down with sequencing); 20 mM Tris-HCl pH 7.5, 100 mM NaCl, 1.5 mM MgCl2, 0.4 uM protein, 0.1 uM dsDNA library, 30 min, room temperature, amylose pull-down; high values mean tight binding. As to conditions: protein: recombinant; tags: His6-MBP; chain copies: 2; dsDNA, one strand shown. Summed up: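 Binding is reads-per-million enrichment of pull-down over input, with replicates pooled. It comes from 30 min room-temperature incubation in Tris pH 7.5 buffer with NaCl and MgCl2 of 0.4 µM His6-MBP-tagged, N-terminally truncated mouse FoxP3 or FoxP1 fragment from E. coli with 0.1 µM Klenow-filled degenerate double-stranded DNA library, followed by amylose resin capture, three washes and Illumina sequencing of the released DNA.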
For “GATGATTGTTCTCCCAGCTGATGAATTGAGTCTGTCGAGTAAACAAATTTTCCTAATCTTTCTGTTCAAGCGCCATCTAC”, the binding signal was 0.855 RPM ratio (pull-down/input). On to “GATGATTGTTCTCCCAGCTGATGAATTATTCTAGTCGAGTAAACAAATTTTCCTAATCTTTCTGTTCAAGCGCCATCTAC”, for which the binding signal is 0.986 RPM ratio (pull-down/input). Take “GATGATTGTTCTCCCAGCTGATGAATTTGTCAGGTCGAGTAAACAAATTTTCCTAATCTTTCTGTTCAAGCGCCATCTAC”: the binding signal is 0.921 RPM ratio (pull-down/input). Turning to “GATGATTGTTCTCCCAGCTGATGAATTGTTCTTATCGAGTAAACAAATTTTCCTAATCTTTCTGTTCAAGCGCCATCTAC”, the binding signal was 1.41 RPM ratio (pull-down/input). The result for “GATGATTGTTCTCCCAGCTGATGAATTTTATCTCTCGAGTAAACAAATTTTCCTAATCTTTCTGTTCAAGCGCCATCTAC” reads 0.885 RPM ratio (pull-down/input); that for “GATGATTGTTCTCCCAGCTGATGAATTAATGGGTTCGAGTAAACAAATTTTCCTAATCTTTCTGTTCAAGCGCCATCTAC”, 0.881 RPM ratio (pull-down/input). For “GATGATTGTTCTCCCAGCTGATGAATTCCTAGACTCGAGTAAACAAATTTTCCTAATCTTTCTGTTCAAGCGCCATCTAC”, the binding signal is 0.82 RPM ratio (pull-down/input). To “GATGATTGTTCTCCCAGCTGATGAATTCATTAAGTCGAGTAAACAAATTTTCCTAATCTTTCTGTTCAAGCGCCATCTAC” belongs 0.936 RPM ratio (pull-down/input); to “GATGATTGTTCTCCCAGCTGATGAATTGTCACATTCGAGTAAACAAATTTTCCTAATCTTTCTGTTCAAGCGCCATCTAC”, 1.2 RPM ratio (pull-down/input). On to “GATGATTGTTCTCCCAGCTGATGAATTTCGGGTCTCGAGTAAACAAATTTTCCTAATCTTTCTGTTCAAGCGCCATCTAC”, for which the binding signal is 0.759 RPM ratio (pull-down/input). In the case of “GATGATTGTTCTCCCAGCTGATGAATTCGTGGTCTCGAGTAAACAAATTTTCCTAATCTTTCTGTTCAAGCGCCATCTAC”, the binding signal was 0.82 RPM ratio (pull-down/input). For the sequence “GATGATTGTTCTCCCAGCTGATGAATTTATGCCCTCGAGTAAACAAATTTTCCTAATCTTTCTGTTCAAGCGCCATCTAC”, the binding signal was 1.02 RPM ratio (pull-down/input).

On to “GATGATTGTTCTCCCAGCTGATGAATTATGACCGTCGAGTAAACAAATTTTCCTAATCTTTCTGTTCAAGCGCCATCTAC”, for which the binding signal is 0.927 RPM ratio (pull-down/input). Turning to “GATGATTGTTCTCCCAGCTGATGAATTATCCCTCTCGAGTAAACAAATTTTCCTAATCTTTCTGTTCAAGCGCCATCTAC”, the binding signal is 0.912 RPM ratio (pull-down/input).

Take “GATGATTGTTCTCCCAGCTGATGAATTCTAATTGTCGAGTAAACAAATTTTCCTAATCTTTCTGTTCAAGCGCCATCTAC”: the binding signal was 1.29 RPM ratio (pull-down/input). On to “GATGATTGTTCTCCCAGCTGATGAATTTGCATCCTCGAGTAAACAAATTTTCCTAATCTTTCTGTTCAAGCGCCATCTAC”, for which the binding signal was 1.77 RPM ratio (pull-down/input). Regarding “GATGATTGTTCTCCCAGCTGATGAATTCGGATAGTCGAGTAAACAAATTTTCCTAATCTTTCTGTTCAAGCGCCATCTAC”, the binding signal is 0.83 RPM ratio (pull-down/input). As for “GATGATTGTTCTCCCAGCTGATGAATTTCTAGGGTCGAGTAAACAAATTTTCCTAATCTTTCTGTTCAAGCGCCATCTAC”, the binding signal is 0.71 RPM ratio (pull-down/input). To “GATGATTGTTCTCCCAGCTGATGAATTACACTCCTCGAGTAAACAAATTTTCCTAATCTTTCTGTTCAAGCGCCATCTAC” belongs 0.964 RPM ratio (pull-down/input). For “GATGATTGTTCTCCCAGCTGATGAATTATAATCATCGAGTAAACAAATTTTCCTAATCTTTCTGTTCAAGCGCCATCTAC”, the binding signal was 1.29 RPM ratio (pull-down/input). To “GATGATTGTTCTCCCAGCTGATGAATTGGGTAAATCGAGTAAACAAATTTTCCTAATCTTTCTGTTCAAGCGCCATCTAC” belongs 1.17 RPM ratio (pull-down/input); to “GATGATTGTTCTCCCAGCTGATGAATTAGAGATATCGAGTAAACAAATTTTCCTAATCTTTCTGTTCAAGCGCCATCTAC”, 0.998 RPM ratio (pull-down/input); to “GATGATTGTTCTCCCAGCTGATGAATTGGACCTTTCGAGTAAACAAATTTTCCTAATCTTTCTGTTCAAGCGCCATCTAC”, 0.813 RPM ratio (pull-down/input). In the case of “GATGATTGTTCTCCCAGCTGATGAATTACGGAGATCGAGTAAACAAATTTTCCTAATCTTTCTGTTCAAGCGCCATCTAC”, the binding signal is 0.932 RPM ratio (pull-down/input). On to “GATGATTGTTCTCCCAGCTGATGAATTGATACTATCGAGTAAACAAATTTTCCTAATCTTTCTGTTCAAGCGCCATCTAC”, for which the binding signal was 1.29 RPM ratio (pull-down/input). Take “GATGATTGTTCTCCCAGCTGATGAATTCACTCCCTCGAGTAAACAAATTTTCCTAATCTTTCTGTTCAAGCGCCATCTAC”: the binding signal was 0.792 RPM ratio (pull-down/input). “GATGATTGTTCTCCCAGCTGATGAATTCCAAAATTCGAGTAAACAAATTTTCCTAATCTTTCTGTTCAAGCGCCATCTAC”: the binding signal was 0.865 RPM ratio (pull-down/input). As to “GATGATTGTTCTCCCAGCTGATGAATTGCAGTGTTCGAGTAAACAAATTTTCCTAATCTTTCTGTTCAAGCGCCATCTAC”, the binding signal is 1.14 RPM ratio (pull-down/input). As for “GATGATTGTTCTCCCAGCTGATGAATTCTTACGGTCGAGTAAACAAATTTTCCTAATCTTTCTGTTCAAGCGCCATCTAC”, the binding signal is 0.866 RPM ratio (pull-down/input). Consider “GATGATTGTTCTCCCAGCTGATGAATTCCTTTACTCGAGTAAACAAATTTTCCTAATCTTTCTGTTCAAGCGCCATCTAC”, for which the binding signal was 0.819 RPM ratio (pull-down/input). On to “GATGATTGTTCTCCCAGCTGATGAATTGTCCGGTTCGAGTAAACAAATTTTCCTAATCTTTCTGTTCAAGCGCCATCTAC”, for which the binding signal is 0.913 RPM ratio (pull-down/input).
